# Assay results published in PubChem BioAssay (NCATS).
# “And” between values parts separate entries of the source, which are not always exact repeats. Equal values may be shown once. The shares of active, inactive and inconclusive entries below differ from those in the screen. For part of these data: Where the call is inconclusive, the potency comes from a doubtful curve fit. The source made the active and inactive calls. Unless noted, the call rests on the fitted dose curve; in most records, active means well fitted curve in the direction sought with a large enough effect; inconclusive means small, poorly fitted or top-dose-only effect, or another doubt; inactive means no such curve, though single readings can be large; an effect the other way counts as inactive or inconclusive.
# System: not listed separately
# Experiment: Primary qHTS for small molecule stabilizers of the endoplasmic reticulum resident proteome: Secreted ER Calcium Modulated Protein (SERCaMP) assay (AID 1508630); further: potency means the concentration at half of the fitted maximal effect
# Settings: SH-SY5Y GLuc-SERCaMP (Gaussia luciferase released on ER calcium loss) secretion, thapsigargin, luminescence; activity change, negative = inhibition: at 38.4 µM (top of the series)
# Method in brief: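 GLuc-SERCaMP-expressing SH-SY5Y cells, pretreated 16 h with compound, are challenged with thapsigargin to empty ER calcium stores; after 4 h, coelenterazine is added directly to the medium and luminescence is imaged.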
# Tags describe the fitted curve by direction and shape.
row,Compound,Potency
1,CCOC(=O)C(C)(C)Oc1ccc(Cl)cc1,"inconclusive: 7.49 µM [inhibitor, partial curve, poor fit] and inconclusive: 5.62 µM [inhibitor, partial curve, poor fit]"
2,Nc1nc2c(ncn2COCCO)c(=O)[nH]1,"inconclusive: 2.98 µM [inhibitor, full curve, poor fit] and inconclusive: 25.1 µM [inhibitor, partial curve, poor fit]"
3,CCCC(CCC)C(=O)O,"inconclusive: 2.24 µM [inhibitor, full curve, poor fit]"
4,Cc1nc2c([nH]1)CCN(C(=O)c1ccc(NC(=O)c3ccccc3-c3ccccc3)cc1)c1ccccc1-2,"inconclusive: 29.8 µM [inhibitor, partial curve, poor fit]"
5,C=CCc1ccc(O)c(-c2ccc(O)c(CC=C)c2)c1,"inconclusive: 0.0133 µM [inhibitor, full curve, poor fit]"
6,CC1(C)CCC(C)(C)c2cc(NC(=O)c3ccc(C(=O)O)cc3)ccc21,"inconclusive: 11.2 µM [inhibitor, partial curve, poor fit]"
7,O=C(O)CCn1c2c(c3ccccc31)C[C@H](NS(=O)(=O)c1ccc(F)cc1)CC2,"inconclusive: 17.8 µM [inhibitor, single point] and inconclusive: 29.8 nM [inhibitor, full curve, poor fit]"

# Molecular target: Cytochrome P450 2C9 (Homo sapiens) (UniProt P11712)
# Sequence of UniProt P11712 (P11712 whole entry, looked up): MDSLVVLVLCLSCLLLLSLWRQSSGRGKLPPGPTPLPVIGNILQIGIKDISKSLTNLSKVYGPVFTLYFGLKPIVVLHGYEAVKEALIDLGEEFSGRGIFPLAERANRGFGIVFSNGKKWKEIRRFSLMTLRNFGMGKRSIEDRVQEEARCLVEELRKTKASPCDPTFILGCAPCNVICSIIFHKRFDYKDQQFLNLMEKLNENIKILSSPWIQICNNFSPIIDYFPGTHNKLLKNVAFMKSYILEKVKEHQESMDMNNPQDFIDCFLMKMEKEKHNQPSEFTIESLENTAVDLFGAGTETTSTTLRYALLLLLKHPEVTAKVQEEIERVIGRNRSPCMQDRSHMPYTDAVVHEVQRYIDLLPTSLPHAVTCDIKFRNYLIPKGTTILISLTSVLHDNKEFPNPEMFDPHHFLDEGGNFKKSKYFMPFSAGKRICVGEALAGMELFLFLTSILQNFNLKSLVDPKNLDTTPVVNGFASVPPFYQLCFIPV
# Experiment: Cytochrome P450 family 2 subfamily C member 9 (CYP2C9) small molecule antagonists: luciferase biochemical (cell-free) qHTS assay (AID 1645842; active means well fitted curve in the direction sought with a large enough effect in the repeat runs; inconclusive means weak or mixed curves; inactive means no such curve, though single readings can be large; an effect the other way counts as inactive or inconclusive; further: on the % scale 0 is the no-effect control and ±100 the full control effect; nearly all actives have a fitted effect of over 55% in size)
# Settings: P450-Glo CYP2C9 enzyme assay, luciferin luminescence; series mostly up to 57.4 µM; activity change, negative = inhibition: at the top concentration
# Method in brief: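 Luminescence, after 20 min with luciferin detection reagent, reflected CYP2C9 turnover during a 1 h NADPH-driven reaction at 37C. Enzyme-substrate mix contained 0.4% bovine serum albumin and was preincubated with compound 10 min at room temperature.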
row,Compound,"activity change, negative = inhibition"
1,CCn1cc(C(=O)O)c(=O)c2cc(F)c(N3CCNCC3)nc21,inactive: 2.06%
2,Cc1ccc(N(CC2=NCCN2)c2cccc(O)c2)cc1,inactive: 1.11%
3,CC1(C)CCC(C)(C)c2cc(NC(=O)c3ccc(C(=O)O)cc3)ccc21,inactive: -7.77%

# System: not listed separately
# Experiment: Primary qHTS for inhibitors of nuclear receptor binding SET domain protein 2 (NSD2) in an isogenic RCH-ACV NSD2 p.E1099K mutant (9B) (AID 1645876); further: nearly all actives have a fitted effect of over 70% in size; further: potency means the concentration at half of the fitted maximal effect; on activity change, negative = viability loss: on the % scale 0 is the no-effect control and ±100 the full control effect
# Settings: RCH-ACV NSD2 E1099K (9B) viability, CellTiter-Glo, 72 h; series mostly up to 44.9 µM; activity change, negative = viability loss: at the top concentration
row,Compound,Potency
1,CN(C)c1ccc(O)c2c1C[C@H]1C[C@H]3[C@H](N(C)C)C(=O)C(C(N)=O)=C(O)[C@@]3(O)C(=O)C1=C2O,"inconclusive: 21.1 µM [inhibitor, single point]"
2,Cc1ccc(N(CC2=NCCN2)c2cccc(O)c2)cc1,"inconclusive: 33.5 µM [inhibitor, partial curve, poor fit]"
3,CN1CCC(=C2c3ccccc3CC(=O)c3sccc32)CC1,"inconclusive: 29.9 µM [inhibitor, single point]"
4,Nc1nc2c(ncn2COCCO)c(=O)[nH]1,inactive
5,CC1(C)CCC(C)(C)c2cc(NC(=O)c3ccc(C(=O)O)cc3)ccc21,"inconclusive: 13.3 µM [inhibitor, partial curve] and inconclusive: 6.61 µM [inhibitor, partial curve]"

# System: not listed separately
# Experiment: Primary qHTS for inhibitors of nuclear receptor binding SET domain protein 2 (NSD2) in an RCH-ACV wild type WT cells (2C) (AID 1645877); further: nearly all actives have a fitted effect of over 70% in size; further: potency means the concentration at half of the fitted maximal effect; on activity change, negative = cell killing: on the % scale 0 is the no-effect control and ±100 the full control effect
# Settings: RCH-ACV (leukaemia line) NSD2 WT (2C) viability, CellTiter-Glo, 72 h; series mostly up to 44.9 µM; activity change, negative = cell killing: at the top concentration
row,Compound,Potency
1,NC12CC3CC(CC(C3)C1)C2,inactive
2,COc1c(N2CCNC(C)C2)c(F)cc2c(=O)c(C(=O)O)cn(C3CC3)c12 (stereo unspecified),inactive
3,CN(C)c1ccc(O)c2c1C[C@H]1C[C@H]3[C@H](N(C)C)C(=O)C(C(N)=O)=C(O)[C@@]3(O)C(=O)C1=C2O,"inactive and inconclusive: 23.7 µM [inhibitor, partial curve]"
4,Cc1ccc(N(CC2=NCCN2)c2cccc(O)c2)cc1,"inconclusive: 26.6 µM [inhibitor, single point] and inconclusive: 37.2 µM [inhibitor, partial curve, poor fit]"
5,CN1CCC(=C2c3ccccc3CC(=O)c3sccc32)CC1,"inconclusive: 26.6 µM [inhibitor, single point] and inconclusive: 33.2 µM [inhibitor, single point]"
6,CC1(C)CCC(C)(C)c2cc(NC(=O)c3ccc(C(=O)O)cc3)ccc21,"inconclusive: 18.8 µM [inhibitor, single point] and inconclusive: 26.3 µM [inhibitor, single point]"
